From US4883801A, “Xanthine derivative pest control agents” (priority 1986, dated 1989)
Some results were stated once for a whole list of compounds, not compound by compound.

Test system: Manduca sexta (tobacco hornworm) larvae
Assay: Antifeeding test: tomato leaves sprayed with compound, tobacco hornworm larvae
Format: in vivo
Conditions: for activity compared with caffeine: Table 1; for pesticidal and pestistatic activity class (active / inactive / weakly active): Table 1 grouping

Structure (SMILES)	activity compared with caffeine	pesticidal and pestistatic activity class (active / inactive / weakly active)
CCn1c(=O)c2[nH]cnc2n(CC)c1=O [Example 16, 1,3-diethyl-xanthine]	more active than caffeine	active
CCCn1c(=O)c2[nH]cnc2n(CCC)c1=O [Example 17, 1,3-dipropyl-xanthine]	more active than caffeine	active
C=CCn1c(=O)c2[nH]cnc2n(CC=C)c1=O [Example 18, 1,3-diallyl-xanthine]	more active than caffeine	active
O=c1c2[nH]cnc2n(Cc2ccccc2)c(=O)n1Cc1ccccc1 [Example 19, 1,3-dibenzyl-xanthine]	more active than caffeine	active
CC(C)CCn1c(=O)c2[nH]cnc2n(CC(C)C)c1=O [Example 21, 1-isoamyl,3-isobutyl-xanthine]	more active than caffeine	active
CCn1c(=O)n(CCc2ccccc2)c(=O)c2[nH]cnc21 [Example 22, 1-phenethyl,3-ethyl-xanthine]	–	active
CC(O)Cn1cnc2c1c(=O)n(C)c(=O)n2C (stereo not drawn) [Example 25, 1,3-dimethyl,7-(beta-hydroxypropyl-xanthine)]	–	active
COc1nc2c(c(=O)n(C)c(=O)n2C)n1C [Example 26, 1,3,7-trimethyl,8-methoxy-xanthine]	more active than caffeine	active
Cn1cnc2c1c(=O)[nH]c(=O)n2C [Example 27, 3,7-dimethyl-xanthine (theobromine), reference compound]	–	active
CCCn1c(=O)c2c(ncn2C)n(CCC)c1=O [Example 28, 1,3-dipropyl,7-methyl-xanthine]	more active than caffeine	active
CCCn1c(=O)c2c(ncn2CCC)n(CCC)c1=O [Example 29, 1,3,7-tripropyl-xanthine]	more active than caffeine	active
CCCn1c(=O)c2c(ncn2Cc2ccccc2)n(CCC)c1=O [Example 30, 1,3-dipropyl,7-benzyl-xanthine]	more active than caffeine	active
CCCCn1c(=O)c2[nH]cnc2n(CCCC)c1=O [Example 31, 1,3-dibutyl-xanthine]	more active than caffeine	active
Cn1c(=O)[nH]c2nc[nH]c2c1=O [Example 33, 1-methyl-xanthine]	–	inactive
Cn1cnc2[nH]c(=O)[nH]c(=O)c21 [Example 35, 7-methyl-xanthine]	–	inactive
Cc1nc2[nH]c(=O)[nH]c(=O)c2[nH]1 [Example 36, 8-methyl-xanthine]	–	inactive
Cn1c(=O)[nH]c2ncn(C)c2c1=O [Example 38, 1,7-dimethyl-xanthine]	–	inactive
Cn1c(=O)[nH]c2[nH]c(=O)n(C)c2c1=O [Example 39, 1,7-dimethyl-uric acid]	–	inactive
Cn1c(=O)c2c([nH]c(=O)n2C)n(C)c1=O [Example 40, 1,3,7-trimethyl-uric acid]	–	inactive
CC(=O)n1cnc2c1c(=O)n(C)c(=O)n2C [Example 41, 1,3-dimethyl-7-acetyl-xanthine]	–	inactive
Cn1c(=O)c2[nH]c(-c3ccccc3)nc2n(C)c1=O [Example 42, 1,3-dimethyl-8-phenyl-xanthine]	–	inactive
CCCn1c(=O)c2[nH]c(-c3ccccc3)nc2n(CCC)c1=O [Example 43, 1,3-dipropyl-8-phenyl-xanthine]	–	inactive
Cn1c(=O)c2c(nc(Cl)n2C)n(C)c1=O [Example 44, 1,3,7-trimethyl-8-chloro-xanthine]	–	inactive
